Source: patent publication US11000038B2, “Pyridone compounds and agricultural and horticultural fungicides containing the same as active ingredients” (priority 2017, dated 2021)

Legend:
[1] = test system: cabbage Alternaria sooty spot fungi (Alternaia brassicicola); assay: Test Example C: cabbage Alternaria sooty spot, spray treatment of cabbage plants; type: in vivo; settings: for Test C control value: cabbage Alternaria sooty spot
From the text: [Test Example C] Cabbage Alternaria Sooty Spot
Test plants (cabbage variety: Shikidori) were cultivated until the cotyledons extended after the sowing of seeds.
<Control Value> Control value=100{1−(n/3)}

[2] = test system: wheat brown rust fungi (Puccinia recondita); assay: Test Example E: wheat brown rust, spray treatment of wheat plants; type: in vivo; settings: for Test E control value: wheat brown rust
[3] = test system: gray mold fungi (Botrytis cinerea); assay: Test Example B: tomato gray mold, spray treatment of tomato plants; settings: for Test B control value: tomato gray mold
[4] = test system: grape downy mildew fungus (Plasmopara viticola); assay: Test Example G: grape downy mildew, spray treatment of grape plants; settings: for Test G control value: grape downy mildew, 7 to 10 days after inoculation
[5] = test system: barley powdery mildew fungi (Blumeria graminis f. sp. hordei); assay: Test Example D: barley powdery mildew, spray treatment of barley plants; settings: for Test D control value: barley powdery mildew
[6] = spray treatment of cabbage plants
[7] = spray treatment of wheat plants
[8] = spray treatment of tomato plants
[9] = spray treatment of barley plants

| Structure (SMILES) | Test C control value [1, 6] | Test E control value [2, 7] | Test B control value [3, 8] | Test G control value ([4]; 250 ppm spray (2.5 ml/pot)) | Test D control value [5, 9] | other results |
| --- | --- | --- | --- | --- | --- | --- |
| CC(C)(C)Cn1cc(Cl)c(=O)c(Br)c1-c1c(F)cc(F)cc1F [Compound 194] | H (H shows the control value of more than 50%) | H (H shows the control value of more than 50%) | H (H shows the control value of more than 50%) | L (L shows the control value of 50% or less) | L (L shows the control value of 50% or less) |  |
| COCCOc1ccc(C)c(-n2cc(Br)c(=O)c(Cl)c2-c2c(F)cc(OC)cc2F)c1 [Compound 283] | H (H shows the control value of more than 50%) | H (H shows the control value of more than 50%) | H (H shows the control value of more than 50%) | L (L shows the control value of 50% or less) | L (L shows the control value of 50% or less) |  |
| COc1cc(F)c(-c2c(Cl)c(=O)c(Cl)cn2-c2cc(OC)ccc2C)c(F)c1 [Compound 294] | H (H shows the control value of more than 50%) | H (H shows the control value of more than 50%) | H (H shows the control value of more than 50%) | L (L shows the control value of 50% or less) | H (H shows the control value of more than 50%) |  |
| COc1ccc(C)c(-n2cc(Br)c(=O)c(Cl)c2-c2c(F)cccc2F)c1 [Compound 392] |  |  |  |  |  | Test C control value ([1]; spray treatment): H (H shows the control value of more than 50%); Test E control value ([2]; spray treatment): H (H shows the control value of more than 50%); Test B control value ([3]; spray treatment): H (H shows the control value of more than 50%); Test G control value ([4]; 250 ppm spray): L (L shows the control value of 50% or less); Test D control value ([5]; spray treatment): L (L shows the control value of 50% or less) |
| CC(c1ccccc1)n1cc(Cl)c(=O)c(I)c1-c1c(F)cc(F)cc1F (stereo not drawn) [Compound 76] |  |  |  |  |  | Test C control value class (cabbage Alternaria sooty spot) ([1]; spray treatment of cabbage plants, control value=100{1-(n/3)}): L (L shows the control value of 50% or less); Test E control value class (wheat brown rust) ([2]; spray treatment of wheat plants, control value=100{1-(n/3)}): H (H shows the control value of more than 50%); Test B control value class (tomato gray mold) ([3]; spray treatment of tomato plants, control value=100{1-(n/3)}): H (H shows the control value of more than 50%); Test G control value class (grape downy mildew) ([4]; 250 ppm spray, 2.5 ml/pot, grape Neomuscat, 7 to 10 days from inoculation): L (L shows the control value of 50% or less); Test D control value class (barley powdery mildew) ([5]; spray treatment of barley plants, control value=100{1-(n/3)}): L (L shows the control value of 50% or less) |
| Cc1ccccc1-n1cc(C)c(=O)c(C)c1-c1c(F)cncc1F [Compound 251] | H (H shows the control value of more than 50%) | H (H shows the control value of more than 50%) | H (H shows the control value of more than 50%) | L (L shows the control value of 50% or less) | L (L shows the control value of 50% or less) |  |
| Cc1ccc(C)c(-n2cc(Cl)c(=O)c(Cl)c2-c2c(F)cccc2F)c1 [Compound 209] | H (H shows the control value of more than 50%) | H (H shows the control value of more than 50%) | H (H shows the control value of more than 50%) | L (L shows the control value of 50% or less) | L (L shows the control value of 50% or less) |  |
| COc1ccccc1-c1c(C)c(=O)c(C)cn1-c1ccccc1 [Compound 582] |  |  |  |  |  | Test C control value ([1]; spray treatment): H (H shows the control value of more than 50%); Test E control value ([2]; spray treatment): L (L shows the control value of 50% or less); Test B control value ([3]; spray treatment): L (L shows the control value of 50% or less); Test G control value ([4]; 250 ppm spray): L (L shows the control value of 50% or less); Test D control value ([5]; spray treatment): L (L shows the control value of 50% or less) |
| COCCn1cc(Br)c(=O)c(Br)c1-c1c(F)cc(F)cc1F [Compound 213] | H (H shows the control value of more than 50%) | H (H shows the control value of more than 50%) | L (L shows the control value of 50% or less) | H (H shows the control value of more than 50%) | L (L shows the control value of 50% or less) |  |
